Assay results taken from PubChem BioAssay AID924 (National Center for Advancing Translational Sciences (NCATS), 2007).
About 1,200 (0.92%) of roughly 130,000 compounds were called active. Inconclusive results, whose numbers are uncertain, are shown with a selection of clear calls. Calls come from the whole dose curve; as a rule, active = well fitted cell-killing curve with a large enough effect; inconclusive = small, poorly fitted or top-dose-only effect; inactive = no such curve, though single readings can be large or run the other way. Where the call is inconclusive, the potency comes from a doubtful curve fit.

test: qHTS Screen for Compounds that Selectively Target Cancer Cells with p53 Mutations: Cytotoxicity of p53ts Cells at the Permissive Temperature; details: H1299-p53A138V at 32C, ATP luminescence viability, 24 h; series mostly up to 46.1 µM; note: nearly all actives have a fitted effect of over 55% in size
Outline: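 ATP-content luminescence (ATPlite) read-out after 24 h compound exposure at 32C in H1299-p53A138V cells (600/well). Tested up to 46 uM. Normalized to DMSO (0%) and 100 uM tamoxifen (100% killing); Hill-fit AC50.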
Potency is the fitted concentration of half-maximal effect; tags give direction and shape of the fitted curve.

Row | Compound | Potency
1 | CCOc1ccc2[nH]c(=O)c(CN(Cc3ccc(C)cc3)C(=O)N3CCCC3)cc2c1 | inactive
2 | Cc1cc(OCCCn2c(CCNC(=O)C3CCCCC3)nc3ccccc32)ccc1Cl | inconclusive: 31.6 µM [cytotoxic, single point]
3 | Cc1ccc(CCNC(=O)c2c[nH]c3ccc(S(=O)(=O)Nc4ccc(C)cc4C)cc3c2=O)cc1 | inconclusive: 25.1 µM [cytotoxic, single point]
4 | CC(=O)c1cccc(Nc2nc(-c3cccc(C)c3)nc3ccccc23)c1 | inconclusive: 22.4 µM [cytotoxic, single point]
5 | Cc1cc(NCCOCCO)n2ncc(-c3ccc(Cl)cc3)c2n1 | inconclusive: 12.6 µM [cytotoxic, partial curve]
6 | COc1cccc(N2CCN(c3ncnc4c3[nH]c3ccccc34)CC2C)c1 (centres undefined) | inconclusive: 35.5 µM [cytotoxic, single point]
7 | S=C(Nc1ccc(Cl)c(Cl)c1)NC1CCN(Cc2ccccc2)CC1 | inconclusive: 28.2 µM [cytotoxic, single point]
8 | COc1cc(NC(=O)c2cc3c(s2)-c2ccccc2OC3)cc(OC)c1OC | active: 12.6 µM
9 | N#CCCn1c(=O)c(-c2cccs2)nc2cnc(Oc3cccc(Cl)c3)nc21 | inactive
10 | CCOc1cc(N2CCOCC2)c(OCC)cc1NC(=O)c1cc(-c2ccco2)nc2ccccc12 | inconclusive: 25.1 µM [cytotoxic, single point]
11 | COc1ccccc1-c1nnc(SCCOc2ccccc2C)o1 | inactive
12 | CCN(CC)S(=O)(=O)c1cc(-c2nnc(Nc3ccc(OC)c(C(N)=O)c3)c3ccccc23)ccc1C | inconclusive: 31.6 µM [cytotoxic, single point]
13 | Cc1ccc(NC(=O)c2cccc(N3CCCS3(=O)=O)c2)cc1 | inconclusive: 12.6 µM [cytotoxic, single point]
14 | Cc1cc(-n2c(SCC(=O)NCc3cccs3)nc3n[nH]c(C)c3c2=N)ccc1Cl | inconclusive: 31.6 µM [cytotoxic, single point]
15 | O=C(Nc1nnc(-c2ccco2)s1)c1ccccc1 | inconclusive: 12.6 µM [cytotoxic, partial curve]
16 | CCc1ccc(-c2nc(CN3CCCC(C(=O)N4CCN(c5cc(Cl)ccc5C)CC4)C3)c(C)o2)cc1 (centres undefined) | active: 12.6 µM
17 | CCOCC(=O)Nc1nc2ccc(S(C)(=O)=O)cc2s1 | inactive
18 | COc1ccc2nc(-c3ccc(N)cc3)[nH]c2c1 | active: 15.8 µM
19 | COc1cccc(C(=O)N(Cc2ccc3c(c2)OCO3)Cc2nc3ccccc3c(=O)[nH]2)c1 | inactive
